For 32 sequences, binding signal (RPM ratio (pull-down/input)) results are on record in publication PMC12820563.

The list shows a part of the results. The list includes weakly bound sequences.

In the assay the target is T1, MBP-FoxP3dN (UniProt Q99JB6).
T1 sequence: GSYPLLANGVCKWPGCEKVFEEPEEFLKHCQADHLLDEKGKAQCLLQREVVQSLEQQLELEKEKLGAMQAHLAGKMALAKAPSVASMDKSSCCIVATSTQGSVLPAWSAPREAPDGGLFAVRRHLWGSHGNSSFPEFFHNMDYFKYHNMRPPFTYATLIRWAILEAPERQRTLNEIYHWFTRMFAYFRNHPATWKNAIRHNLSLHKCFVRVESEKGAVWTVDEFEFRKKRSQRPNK
Kind of assay: PD-seq (MBP pull-down with sequencing). The settings on record: 20 mM Tris-HCl pH 7.5, 100 mM NaCl, 1.5 mM MgCl2, 0.4 uM protein, 0.1 uM dsDNA library, 30 min, room temperature, amylose pull-down; high values mean tight binding; double strand, one strand shown.
For the sequence “GATGATTGTTCTCCCAGCTGATGAATTGGTCCTCTCGAGTAAACAAATTTTCCTAATCTTTCTGTTCAAGCGCCATCTAC”, the binding signal (RPM ratio (pull-down/input)) was found to be 0.368. To “GATGATTGTTCTCCCAGCTGATGAATTAGCTAGATCGAGTAAACAAATTTTCCTAATCTTTCTGTTCAAGCGCCATCTAC” belongs 0.34; to “GATGATTGTTCTCCCAGCTGATGAATTGCGAGCATCGAGTAAACAAATTTTCCTAATCTTTCTGTTCAAGCGCCATCTAC”, 1.29; to “GATGATTGTTCTCCCAGCTGATGAATTTACGCTTTCGAGTAAACAAATTTTCCTAATCTTTCTGTTCAAGCGCCATCTAC”, 1.32. Take “GATGATTGTTCTCCCAGCTGATGAATTAAATGTCTCGAGTAAACAAATTTTCCTAATCTTTCTGTTCAAGCGCCATCTAC”: the binding signal (RPM ratio (pull-down/input)) was determined as 0.871.

Take “GATGATTGTTCTCCCAGCTGATGAATTACATATCTCGAGTAAACAAATTTTCCTAATCTTTCTGTTCAAGCGCCATCTAC”: the binding signal (RPM ratio (pull-down/input)) amounted to 0.928. Consider “GATGATTGTTCTCCCAGCTGATGAATTATTCCAATCGAGTAAACAAATTTTCCTAATCTTTCTGTTCAAGCGCCATCTAC”, for which the binding signal (RPM ratio (pull-down/input)) worked out at 0.373.

With “GATGATTGTTCTCCCAGCTGATGAATTACGTATGTCGAGTAAACAAATTTTCCTAATCTTTCTGTTCAAGCGCCATCTAC”, the binding signal (RPM ratio (pull-down/input)) is 2.23.

For the sequence “GATGATTGTTCTCCCAGCTGATGAATTCTTGCGCTCGAGTAAACAAATTTTCCTAATCTTTCTGTTCAAGCGCCATCTAC”, the binding signal (RPM ratio (pull-down/input)) came out at 0.482. “GATGATTGTTCTCCCAGCTGATGAATTAGCGTACTCGAGTAAACAAATTTTCCTAATCTTTCTGTTCAAGCGCCATCTAC”: the binding signal (RPM ratio (pull-down/input)) was 1.26. With “GATGATTGTTCTCCCAGCTGATGAATTGCAGGCGTCGAGTAAACAAATTTTCCTAATCTTTCTGTTCAAGCGCCATCTAC”, the binding signal (RPM ratio (pull-down/input)) turned out to be 0.915.

“GATGATTGTTCTCCCAGCTGATGAATTCCGCAGGTCGAGTAAACAAATTTTCCTAATCTTTCTGTTCAAGCGCCATCTAC”: the binding signal (RPM ratio (pull-down/input)) was 0.841.

Turning to “GATGATTGTTCTCCCAGCTGATGAATTGATTCCATCGAGTAAACAAATTTTCCTAATCTTTCTGTTCAAGCGCCATCTAC”, the binding signal (RPM ratio (pull-down/input)) came out at 0.42. For “GATGATTGTTCTCCCAGCTGATGAATTAGACCGATCGAGTAAACAAATTTTCCTAATCTTTCTGTTCAAGCGCCATCTAC”, the binding signal (RPM ratio (pull-down/input)) came out at 0.254. To “GATGATTGTTCTCCCAGCTGATGAATTAGCTTAATCGAGTAAACAAATTTTCCTAATCTTTCTGTTCAAGCGCCATCTAC” belongs 0.382; to “GATGATTGTTCTCCCAGCTGATGAATTTGCGTGGTCGAGTAAACAAATTTTCCTAATCTTTCTGTTCAAGCGCCATCTAC”, 3.67. Turning to “GATGATTGTTCTCCCAGCTGATGAATTCTATAATTCGAGTAAACAAATTTTCCTAATCTTTCTGTTCAAGCGCCATCTAC”, the binding signal (RPM ratio (pull-down/input)) was 0.441. As for “GATGATTGTTCTCCCAGCTGATGAATTTTTAACTTCGAGTAAACAAATTTTCCTAATCTTTCTGTTCAAGCGCCATCTAC”, the binding signal (RPM ratio (pull-down/input)) is 0.269. For “GATGATTGTTCTCCCAGCTGATGAATTACCGCAATCGAGTAAACAAATTTTCCTAATCTTTCTGTTCAAGCGCCATCTAC”, the binding signal (RPM ratio (pull-down/input)) amounted to 2.61.

On to “GATGATTGTTCTCCCAGCTGATGAATTGTTCCTTTCGAGTAAACAAATTTTCCTAATCTTTCTGTTCAAGCGCCATCTAC”, for which the binding signal (RPM ratio (pull-down/input)) was found to be 0.426.

As to “GATGATTGTTCTCCCAGCTGATGAATTCTGGATATCGAGTAAACAAATTTTCCTAATCTTTCTGTTCAAGCGCCATCTAC”, the binding signal (RPM ratio (pull-down/input)) worked out at 0.541.

As to “GATGATTGTTCTCCCAGCTGATGAATTCTTCGGATCGAGTAAACAAATTTTCCTAATCTTTCTGTTCAAGCGCCATCTAC”, the binding signal (RPM ratio (pull-down/input)) amounted to 0.185.

“GATGATTGTTCTCCCAGCTGATGAATTGGGATAGTCGAGTAAACAAATTTTCCTAATCTTTCTGTTCAAGCGCCATCTAC”: the binding signal (RPM ratio (pull-down/input)) amounted to 0.431. Turning to “GATGATTGTTCTCCCAGCTGATGAATTACCTTATTCGAGTAAACAAATTTTCCTAATCTTTCTGTTCAAGCGCCATCTAC”, the binding signal (RPM ratio (pull-down/input)) stood at 0.353.

On to “GATGATTGTTCTCCCAGCTGATGAATTGGACATATCGAGTAAACAAATTTTCCTAATCTTTCTGTTCAAGCGCCATCTAC”, for which the binding signal (RPM ratio (pull-down/input)) is 0.453. As for “GATGATTGTTCTCCCAGCTGATGAATTCCCATAGTCGAGTAAACAAATTTTCCTAATCTTTCTGTTCAAGCGCCATCTAC”, the binding signal (RPM ratio (pull-down/input)) was determined as 0.234. The same measure for “GATGATTGTTCTCCCAGCTGATGAATTGCGCCCGTCGAGTAAACAAATTTTCCTAATCTTTCTGTTCAAGCGCCATCTAC”: 3.12; for “GATGATTGTTCTCCCAGCTGATGAATTTTTTAAATCGAGTAAACAAATTTTCCTAATCTTTCTGTTCAAGCGCCATCTAC”: 0.217; for “GATGATTGTTCTCCCAGCTGATGAATTGCGAAAATCGAGTAAACAAATTTTCCTAATCTTTCTGTTCAAGCGCCATCTAC”: 0.404.

In the case of “GATGATTGTTCTCCCAGCTGATGAATTCAACTCGTCGAGTAAACAAATTTTCCTAATCTTTCTGTTCAAGCGCCATCTAC”, the binding signal (RPM ratio (pull-down/input)) amounted to 0.296.

On to “GATGATTGTTCTCCCAGCTGATGAATTGTTCCGCTCGAGTAAACAAATTTTCCTAATCTTTCTGTTCAAGCGCCATCTAC”, for which the binding signal (RPM ratio (pull-down/input)) was 0.333. The same measure for “GATGATTGTTCTCCCAGCTGATGAATTATTCGATTCGAGTAAACAAATTTTCCTAATCTTTCTGTTCAAGCGCCATCTAC”: 0.442.
